Among the data in the supplement of paper PMC6206098 are cell viability values, retold here.

± gives the uncertainty stated by the source. Shown are siRNA guide strands that differ only in the seed, positions 2 to 7.

In data set [1] the test system is 3LL. The data set is described as follows: cell viability relative to siNT1 control; higher = less toxic. The note with it: concentration: 10 nM; 96 h; Mus musculus.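 Note: Luminescence-based viability of cells reverse transfected in 384-well plates with lipid-complexed siRNAs built on a non-toxic 19mer backbone whose passenger strand carries 2′-O-methyl groups at positions 1 and 2, triplicates.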
The subject of data set [2] is H460. The data set is described as follows: cell viability relative to lipid-only control; HeyA8 human ovarian and H460 human lung cancer; M565 mouse liver and 3LL mouse lung cancer; siNT1 is a non-toxic control siRNA; higher = less toxic. The note with it: concentration: 10 nM; 96 h; Homo sapiens. How it is done:
(§1)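 Arrayed screen of 4096 siRNA duplexes, each carrying one of all possible 6mer seeds at guide-strand positions 2-7 in a fixed neutral 19mer scaffold (constant flanks: U at position 1, then ACAUGUAAACCA, plus a 3' AA overhang). The passenger strand is 2'-O-methylated at positions 1-2 so only the guide strand loads into RISC. Duplexes were reverse-transfected at 10 nM with RNAiMAX in triplicate in 384-well plates; viability was read by CellTiter-Glo ATP content 96 h after transfection. Values are % viability normalised to lipid-only wells (HeyA8, H460, M565) or to siNT1 (3LL).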

Data set [3] concerns HeyA8. Described as above. The following applies: concentration: 10 nM; 96 h; Homo sapiens. How it is done: as §1
For data set [4], the system named is M565. The data set is described as above. The note with it: concentration: 10 nM; 96 h; Mus musculus. How it is done: as §1
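Throughout, for cell viability relative to lipid-only control: reverse lipid transfection in 384-well plates, in triplicate, of duplexes on a non-toxic 19mer backbone with passenger strand 2′-O-methylated at positions 1 and 2, luminescence viability read-out.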

A word on the cell viability: it is a read-out of living cells in per cent, often relative to untreated cells. For the sequence UAUUCGGACAUGUAAACCAAA, the cell viability stood at 102 ± 18% in data set [1], 77.1 ± 6.5% in data set [2], 92.6 ± 4% in data set [3] and 88.8 ± 7.8% in data set [4].
In the same order, the values of UUUUCCCACAUGUAAACCAAA are 50.9 ± 3.7%, 60.5 ± 5%, 53.3 ± 5.4% and 56.8 ± 12%.
As to UGCAAUGACAUGUAAACCAAA, the cell viability stood at 90.2 ± 13% in data set [1], 81.4 ± 19% in data set [2], 60.2 ± 6% in data set [3] and 82.3 ± 2.6% in data set [4].
In the same order, the values of UUAGCAGACAUGUAAACCAAA are 46.5 ± 8.7%, 71.5 ± 6.6%, 83.4 ± 6.5% and 28.5 ± 4.4%.
In the same order, the values of UAGUUUCACAUGUAAACCAAA are 75.9 ± 2.8%, 47.2 ± 11%, 26.6 ± 1.4% and 70.9 ± 21%.
As for UCUUCCCACAUGUAAACCAAA, the cell viability in data set [1] is 89.9 ± 15%; in data set [2], 52.2 ± 2.4%; in data set [3], 42.6 ± 4%; in data set [4] it was 44.7 ± 8.9%.
In the same order, the values of UGCAUGAACAUGUAAACCAAA are 85.8 ± 12%, 64.5 ± 9.8%, 79.7 ± 11% and 62.6 ± 5.4%.
Turning to UCCCAGAACAUGUAAACCAAA, the cell viability in data set [1] stood at 103 ± 34%; in data set [2] it was 52 ± 8.9%; in data set [3], 87.4 ± 6.5%; in data set [4] it was 57.8 ± 4.3%.
Regarding UGACCCAACAUGUAAACCAAA, the cell viability stood at 33.7 ± 2.5% in data set [1], 47.6 ± 3.2% in data set [2], 76.7 ± 3.2% in data set [3] and 27.4 ± 9.8% in data set [4].
With UUAGUCUACAUGUAAACCAAA, the cell viability in data set [1] was 66 ± 7.3%; in data set [2], 80.7 ± 15%; in data set [3], 96.5 ± 2%; in data set [4], 27.1 ± 3%.
In the same order, the values of UCUAAUUACAUGUAAACCAAA are 93.5 ± 16%, 54 ± 6.8%, 87.8 ± 15% and 67.2 ± 13%.
In the same order, the values of UGACGGCACAUGUAAACCAAA are 27.4 ± 3.2%, 20.5 ± 1.9%, 10.4 ± 0.86% and 16.3 ± 3.9%.
In the same order, the values of UCUAGGAACAUGUAAACCAAA are 95.7 ± 15%, 49.9 ± 4.5%, 87.2 ± 9.8% and 87.5 ± 14%.
For UCAGCGUACAUGUAAACCAAA, the cell viability in data set [1] amounted to 95.5 ± 12%; in data set [2] it was 85.8 ± 5.3%; in data set [3], 81.4 ± 4.7%; in data set [4], 80.1 ± 5%.
In the same order, the values of UAGAGAUACAUGUAAACCAAA are 31.9 ± 0.78%, 75.1 ± 5.4%, 75.4 ± 5.2% and 14.1 ± 3.8%.
In the same order, the values of UGUGGCUACAUGUAAACCAAA are 5.69 ± 3.2%, 39.5 ± 2.7%, 40.5 ± 0.98% and 14.1 ± 4.3%.
In the same order, the values of UGCCCAUACAUGUAAACCAAA are 52.6 ± 5.8%, 71.3 ± 8.4%, 48.2 ± 4.5% and 28 ± 11%.
Consider UGCGGGCACAUGUAAACCAAA, for which the cell viability in data set [1] worked out at 25 ± 8%; in data set [2], 14 ± 1.6%; in data set [3], 2.74 ± 0.45%; in data set [4], 26.3 ± 1.2%.
In the same order, the values of UUGUGAUACAUGUAAACCAAA are 43.2 ± 7.1%, 45.1 ± 4.3%, 62.2 ± 4.2% and 45.7 ± 2.8%.
In the same order, the values of UGGUUGAACAUGUAAACCAAA are 80.1 ± 0.96%, 53.3 ± 6.9%, 9.76 ± 2.3% and 33.5 ± 2.7%.
In the same order, the values of UGUGAGAACAUGUAAACCAAA are 76.6 ± 9.5%, 45.3 ± 3.2%, 51.9 ± 2.2% and 10.7 ± 2.3%.
With UUCCCCUACAUGUAAACCAAA, the cell viability in data set [1] was 46.2 ± 12%; in data set [2], 65.2 ± 9.1%; in data set [3], 66.9 ± 9.8%; in data set [4], 23.2 ± 1.8%.
